Reference: PubChem BioAssay AID1476 (National Center for Advancing Translational Sciences (NCATS), 2009)
About 4,500 (2.2%) of roughly 200,000 compounds were called active. The shares of active, inactive and inconclusive entries below differ from those in the screen. The call rests on the fitted dose curve; in most records, active means well fitted inhibition curve with a large enough effect; inconclusive means small, poorly fitted or top-dose-only effect, or effect the other way; inactive means flat fitted curve, though single readings scatter. Potencies of inconclusive entries are doubtful fits and often do not repeat.

What follows are compounds tested against Cruzipain (Trypanosoma cruzi) (UniProt P25779) (assay: qHTS Assay for Promiscuous and Specific Inhibitors of Cruzain (without detergent)). Settings: purified cruzain, Z-FR-AMC fluorescence, no detergent.
Chain of UniProt P25779 (P25779 whole entry, looked up): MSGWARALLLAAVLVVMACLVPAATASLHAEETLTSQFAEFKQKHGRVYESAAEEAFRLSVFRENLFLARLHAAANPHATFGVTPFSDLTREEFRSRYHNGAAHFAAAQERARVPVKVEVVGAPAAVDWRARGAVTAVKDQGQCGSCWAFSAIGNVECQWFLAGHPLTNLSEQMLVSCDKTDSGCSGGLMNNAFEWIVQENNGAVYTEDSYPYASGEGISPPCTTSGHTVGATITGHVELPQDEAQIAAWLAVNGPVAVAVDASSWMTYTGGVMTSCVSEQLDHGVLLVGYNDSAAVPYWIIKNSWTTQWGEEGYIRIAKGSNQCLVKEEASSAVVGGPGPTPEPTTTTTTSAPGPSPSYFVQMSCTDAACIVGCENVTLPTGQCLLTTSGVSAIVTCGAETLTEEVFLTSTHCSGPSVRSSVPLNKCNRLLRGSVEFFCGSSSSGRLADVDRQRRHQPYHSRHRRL
Method in brief: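 Purified cruzain at 1.5 nM, pre-incubated 15 min with compound at room temperature in 100 mM sodium acetate pH 5.5, 5 mM DTT, 0.00005% Triton X-100. Reaction started with 2 uM Z-FR-AMC; AMC fluorescence increase over 60 s gives rate.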
Further: nearly all actives have a fitted effect of over 40% in size.
Potency means the concentration at half of the fitted maximal effect; tags describe the fitted curve by direction and shape.
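Wherever max response, negative = inhibition is given: plate controls were enzyme without inhibitor for no effect and buffer without enzyme for full effect.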

Row | SMILES | Potency | max response, negative = inhibition
1 | CC(C)c1nc(N2CCN(C(=O)c3ccco3)CC2)c2c3c(sc2n1)CCCC3 | inconclusive: 39.8 µM [activator, single point] | –
2 | Cc1ccc(Oc2nc(CN3CCOCC3)nc3sc4c(c23)CCC(C)C4)cc1 (centres undefined) | inconclusive: 31.6 µM [activator, single point] | –
3 | OCCN1CCN(C(c2cccs2)c2ccc3cccnc3c2O)CC1 (centres undefined) | inconclusive: 39.8 µM [inhibitor, single point] | –
4 | Cc1ccc(CNC(=O)C(=O)Nc2c3c(nn2-c2ccccc2)CSC3)cc1 | inconclusive: 20 µM [inhibitor, single point] | –
5 | COc1ccc2oc(-c3ccccc3)c(OC)c(=O)c2c1 | – | inactive: -2.16%
6 | CCOc1ccc(NC(=O)Cn2ncc3c2-c2cc(C)ccc2OC3)cc1 | – | inactive: 10.3%
7 | COC(=O)c1cc2c(cc1Cl)SC(=NCCCN1CCOCC1)NS2(=O)=O | inconclusive: 15.8 µM [inhibitor, partial curve] | –
8 | CC(C)(C)c1ccc(/C=C/C(=O)c2ccc(NC3=NCCCS3)cc2)cc1 | active: 31.6 µM | –
9 | CCCCN(CC)C(=O)CSc1nc2n[nH]c(C)c2c(=N)n1-c1cccc(Cl)c1 | inconclusive: 31.6 µM [activator, single point] | –
10 | CCc1ccc(NC(=O)Nc2ccccc2OCc2cc(=O)n3ccccc3n2)cc1 | – | inactive: 5.95%
11 | CCOC(=O)c1ccccc1NC(=O)CSc1nnc(Cc2cccn2C)n1-c1ccc(F)cc1 | inconclusive: 31.6 µM [activator, single point] | –
12 | Cc1ccc(SCC(=O)c2c(C)[nH]c3ccccc23)cc1 | – | inactive: 11.2%
13 | COc1cc(OC)c(OC)cc1/C=C/C(=O)c1ccc(NS(=O)(=O)c2ccc(C)cc2)cc1 | active: 20 µM | –
14 | Cc1cccc(NC(=O)CSc2nnc(CSc3nc(C)cc(C)n3)n2Cc2ccco2)c1 | inconclusive: 31.6 µM [activator, single point] | –
15 | N=c1n(CCN2CCOCC2)c2ccccc2n1CC(=O)c1ccc(Cl)c(Cl)c1 | inconclusive: 31.6 µM [activator, partial curve] | –
16 | N=C1/C(=C\c2ccc(SCc3ccco3)o2)C(=O)N=C2SC=NN12 | inconclusive: 31.6 µM [inhibitor, single point] | –
17 | O=C(Oc1ccccc1)N1CCC[C@@]2(CCN(c3ccccn3)C2)C1 | – | inactive: -2.49%
18 | O=C(Nc1ccc(F)cc1)C(c1ccccc1)N1CCN(S(=O)(=O)c2c(F)cccc2F)CC1 (centres undefined) | inconclusive: 20 µM [inhibitor, partial curve] | –
19 | C=NC(C(=O)NC1C(=O)N2C1SC(C)(C)C2C(=O)O)c1ccccc1 (centres undefined) | inconclusive: 39.8 µM [activator, single point] | –
20 | CSc1ccccc1NC(=O)Nc1cccc(Cl)c1Cl | inconclusive: 39.8 µM [inhibitor, single point] | –
21 | COc1ccccc1NC(=O)N1CCc2[nH]c3ccc(F)cc3c2C1 | inconclusive: 31.6 µM [activator, single point] | –
22 | Clc1ccc(Cl)c(SCCCN2CCNCC2)c1 | – | inactive: 7.86%

Row | SMILES | Potency | max response, negative = inhibition
23 | Cc1ccc2nc(NNC(=O)c3ccc(S(=O)(=O)N4CCc5ccccc5C4)cc3)sc2c1 | active: 25.1 µM | –
24 | Cc1cccc(NC(=O)C2CC(=O)NC(Nc3nc4ccccc4s3)=N2)c1 (centres undefined) | inconclusive: 39.8 µM [inhibitor, single point] | –
25 | Cc1cccc(C(=O)NC2(C(F)(F)F)N=C(c3ccccc3)N(C3CCCCC3)C2=O)c1 (centres undefined) | – | inactive: -13.1%
26 | COc1ccc(C)cc1N(C(=O)c1cccc(F)c1)c1nc2ccccc2s1 | inconclusive: 31.6 µM [inhibitor, single point] | –
27 | CCOC(=O)N1CCc2c(sc3c2c(=O)n(-c2ccc(F)cc2)c(=O)n3CC(=O)c2ccc(Cl)cc2)C1 | – | inactive: -5.92%
28 | CN(C)CCN(Cc1ccco1)C(=O)c1cc2c(s1)-c1ccccc1OC2 | inconclusive: 39.8 µM [inhibitor, single point] | –
29 | Cc1cc(Cl)ccc1OC(C)C(=O)Nc1ccc(S(=O)(=O)Nc2cnc3ccccc3n2)cc1 (centres undefined) | inconclusive: 12.6 µM [activator, partial curve, poor fit] | –
30 | O=C(Nc1ccc(C(=O)N2CCN(c3ccccc3F)CC2)cc1)c1nsc2ccccc12 | inconclusive: 39.8 µM [inhibitor, single point] | –
31 | COc1ccccc1-n1c(N)c(C(=O)NCC2CCCO2)c2nc3ccccc3nc21 (centres undefined) | inconclusive: 39.8 µM [activator, single point] | –
32 | CN1C(C(=O)c2ccccc2)=C(NC(=O)c2ccc(F)cc2)c2ccccc2S1(=O)=O | inconclusive: 39.8 µM [inhibitor, single point] | –
33 | COc1ccc(-c2cn3cccnc3n2)cc1NC(=O)Nc1cc(C)ccc1C | inconclusive: 7.94 µM [activator, partial curve] | –
34 | Cc1ccc(C)c(N2CCN(C(=O)C3CCN(c4nc(C)cc(C)n4)CC3)CC2)c1 | inconclusive: 31.6 µM [activator, single point] | –
35 | O=[N+]([O-])c1ccc(/C=C2\CCC(C3=CCCC3)=C2N2CCOCC2)cc1 | inconclusive: 31.6 µM [inhibitor, single point] | –
36 | Cc1ccc(C)c(N2CCN(S(=O)(=O)c3ccc(-c4cnc(C5CC5)o4)cc3)CC2)c1 | – | inactive: -27.3%
37 | COc1ccc(CN(C(=O)c2ccco2)c2ccc(Br)cc2)cc1OC | inconclusive: 39.8 µM [activator, single point] | –
38 | COc1cccc([C@@H]2Oc3ccc(Br)cc3C[C@H]2OC(=O)Nc2ccc(OC(F)F)cc2)c1 | inconclusive: 15.8 µM [inhibitor, partial curve] | –
39 | CC[C@@H]1C(c2cccc(C)c2)=NN(c2ccc(Br)cc2)[C@H]1C(=O)N1CCOC1=O | inconclusive: 35.5 µM [inhibitor, single point] | –
40 | O=C(Nc1cccc(F)c1)N1CC=C(c2ccc(Cl)cc2)CC1 | inconclusive: 39.8 µM [inhibitor, single point] | –
41 | CCn1nc(NC(=O)c2ccncc2)c2cc3ccc(C)cc3nc21 | inconclusive: 31.6 µM [activator, single point] | –
42 | CC(=O)Nc1sc2c(c1C(c1cccs1)N1CCOCC1)CCCC2 (centres undefined) | inconclusive: 39.8 µM [activator, single point] | –
43 | CCn1c2ccccc2c2cc(NC(=O)COC(=O)c3ccccc3Br)ccc21 | inconclusive: 39.8 µM [inhibitor, single point] | –
44 | Cc1onc(-c2ccccc2)c1C(=O)NC(=S)Nc1sc2c(c1C#N)CCCC2 | active: 12.6 µM | –

Row | SMILES | Potency | max response, negative = inhibition
45 | Cc1ccc(NC(=O)c2oc3ccc(S(=O)(=O)N4CCOCC4)cc3c2C)cc1C | inconclusive: 10 µM [activator, partial curve] | –
46 | O=C(CSc1nc2ccccc2c(=O)n1-c1ccc(Cl)cc1)N/N=C/C=C/c1ccccc1[N+](=O)[O-] | active: 10 µM | –
47 | COc1ccc(/C=N/Nc2ncnc3sc4c(c23)CCCC4)cc1O | inconclusive: 39.8 µM [activator, single point] | –
48 | N#CCCN1CCN(C(=S)c2ccc(-c3cccc(Cl)c3)o2)CC1 | inconclusive: 39.8 µM [activator, single point] | –
49 | N#C/C(C(=O)NCc1ccccc1)=C1/N=C(NC(=O)c2cccs2)c2ccccc21 | active: 25.1 µM | –
50 | Cc1cccc(N2C(=O)CSC23C(=O)N(CC(=O)Nc2cccc(Cl)c2)c2ccccc23)c1 (centres undefined) | inconclusive: 31.6 µM [inhibitor, single point] | –
51 | O=C(N/N=C/c1ccc2c(c1)OCO2)c1ccc(Br)o1 | inconclusive: 39.8 µM [inhibitor, single point] | –
52 | COc1ccc(C2=C(C)C(=O)N(Cc3ccc(C(=O)NC(C)c4ccccc4)cc3)S2(=O)=O)cc1 (centres undefined) | active: 15.8 µM | –
53 | Cc1cccc(OC(C)C(=O)Nc2nonc2-c2ccc(Br)cc2)c1C (centres undefined) | inconclusive: 39.8 µM [activator, single point] | –
54 | COc1ccc(CNc2ncnc3ccc(-c4ccccc4C#N)cc23)c(OC)c1 | inconclusive: 39.8 µM [activator, single point] | –
55 | N#C/C(=C\c1ccc(-c2cccc(C(F)(F)F)c2)o1)C(=O)Nn1cnnc1 | – | inactive: 9.3%
56 | CC(=O)NCCn1c(SCc2ccc(C)cc2C)nc2ccccc2c1=O | inconclusive: 31.6 µM [activator, single point] | –
57 | C[Si](C)(C)C#Cc1ccccc1NC(=S)Nc1ccccc1 | – | inactive: -22.6%
58 | C=CCn1c(C)cc(C(=O)COC(=O)c2ccc3c(c2)NC(=O)CS3)c1C | inconclusive: 31.6 µM [inhibitor, single point] | –
59 | N=C(N)[C@H](N=Nc1ccccc1)C(N)=O | – | inactive: 8.58%
60 | O=C(COC(=O)c1c2c(nc3ccccc13)/C(=C/c1cccc([N+](=O)[O-])c1)CCC2)NC1CCS(=O)(=O)C1 (centres undefined) | inconclusive: 25.1 µM [activator, single point] | –
61 | Cc1ccc(-c2nnc(NCc3nc4ccccc4[nH]3)c3ccccc23)cc1S(=O)(=O)N(C)C | – | inactive: -23.8%
62 | CCc1nc2ccccc2c(C(=O)OCCN2C(=O)c3ccccc3C2=O)c1C | inconclusive: 39.8 µM [activator, single point] | –
63 | COc1ccc([N+](=O)[O-])cc1NC(=O)C(C)N(C)Cc1ccc(Br)cc1 (centres undefined) | inconclusive: 25.1 µM [inhibitor, partial curve, poor fit] | –
64 | COc1ccccc1CN1CCC2(CCNCC2)CC1 | inconclusive: 25.1 µM [inhibitor, single point] | –
